In publication PMC12040169 (PLOS Biology, 2025):
Some of the results follow.

The compounds below were run on T1, C. trachomatis L2/434/Bu expressing GFP (CTL2-GFP). Details: total inclusion area; 28.5 h, 10 µM; inhibitor.
T1 construct: L2/434/Bu GFP intracellular growth in HeLa cells
Set-up: species or system HeLa; C. trachomatis total inclusion area by high-content imaging, normalised to DMSO
Outline: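 High-content imaging followed the bulk GFP/resorufin measurement: fixed, Hoechst-stained cells were scored for GFP inclusions and host nuclei per well. Total inclusion area and count served as growth proxies, nuclei number as the viability proxy. MIC calculation matched the bulk assay.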
`CC(Cc1ccccn1)NC(=O)c1cc(-c2ccccc2F)no1` (centres unmarked) [CBK281421] was tested, and the “% of control remaining” value was 98.6578. For `CCCCc1cc(=O)oc2cc(OCC(=O)O)ccc12` [CBK264205], the “% of control remaining” value was 99.3314. For `COc1ccc(C(C)C)cc1-c1cnc(N)c(N2CCOCC2)n1` [CBK063384], the “% of control remaining” value was 92.2756. For `O=c1c2cn[nH]c2nc(SCc2ccc3c(c2)OCCO3)n1-c1ccccc1` [CBK266593], the “% of control remaining” value was 103.567. `CC(=O)N1c2ccccc2C(C)(c2ccc(Br)cc2)CC1(C)C` (centres unmarked) [CBK026461] was tested, and the “% of control remaining” value was 50.9016. `OC1(Cn2cnc3ccccc32)CCN(Cc2ccc(F)cc2)CC1` [CBK284661] was tested, and the “% of control remaining” value was 102.07. `CNC(=O)CSc1nccc(C(F)(F)F)n1` [CBK107759] was tested, and the “% of control remaining” value was 95.9701. `O=C(CCc1cccnc1)N1CCCCC1c1nc2cc(F)ccc2[nH]1` (centres unmarked) [CBK291106] was tested, and the “% of control remaining” value was 91.7098. For `O=C(Cc1cccnc1)N1CCC(Cc2ccccc2)CC1` [CBK200183], the “% of control remaining” value was 119.584. With `Cc1ccccc1Cc1cccc(C2CCN(C(=O)Cc3ccccc3)CC2)n1` [CBK285625] the “% of control remaining” value was 105.142. `CC(C)(CN)CN(Cc1ccccc1C(F)(F)F)C(=O)NCc1ccc(F)cc1` [CBK002471C] was tested, and the “% of control remaining” value was 76.8564. With `COC(=O)CCC1(C)CN(C)CCC1=O` (centres unmarked) [CBK028494] the “% of control remaining” value was 85.3785. With `O=C(O)c1nccnc1C(=O)N1CCC(O)(c2ccc(Cl)cc2)CC1` [CBK286621] the “% of control remaining” value was 77.8602. `Cc1nn(C)c2nc(NCc3ccc(C(=O)N4CCCCC4)cc3)sc12` [CBK306826] was tested, and the “% of control remaining” value was 27.0349. `CC1=C[C@@H](CNC(=O)c2ccncc2)[C@H](C(C)C)C[C@H]1CC(=O)N1CCOCC1` [CBK289052] was tested, and the “% of control remaining” value was 104.083. In the case of `Cn1c(SCC(=O)c2ccccc2)nnc1-c1ccc(NC(=O)c2ccccc2Cl)cc1` [CBK264357], the “% of control remaining” value is reported as 109.518. `O=S(=O)(CC(F)(F)F)Nc1cccc(-c2nnn[nH]2)c1` [CBK154272] was tested, and the “% of control remaining” value was 77.4523. For `CCCCCCN1CCC2CN(CCCC(=O)c3ccc(F)cc3)CCN2C1=O` (centres unmarked) [CBK024890C], the “% of control remaining” value was 54.9883. With `Cc1csc(-c2cn3ccnc3c(N(C)CCN(C)C)n2)c1` [CBK066553] the “% of control remaining” value was 130.474. In the case of `c1ccc(-c2nc(C3CC3)n3ccccc23)cc1` [CBK149257], the “% of control remaining” value is reported as 93.8378. For `Cc1ccc(S(N)(=O)=O)cc1C(=O)OCC(=O)c1ccccc1` [CBK264588], the “% of control remaining” value was 85.1824. `O=C1NC2(CCOCC2)C(=O)N1Cc1ncc(-c2cccs2)o1` [CBK304187] was tested, and the “% of control remaining” value was 56.1781. With `C=C(C)Cn1c(=O)nc(N)c2c3c(sc21)CCC3` [CBK287986] the “% of control remaining” value was 104.123. `c1ccc(-c2nnc(SCc3nnc(-c4ccccc4)o3)[nH]2)cc1` [CBK270003] was tested, and the “% of control remaining” value was 100.937. With `COCc1cccc(-c2ncc(OCCN3CCCC3=O)nc2N)c1` [CBK145110] the “% of control remaining” value was 96.3656. `Cc1cc(C(F)(F)F)n2ncc(C(=O)N3CCCC3c3ccco3)c2n1` (centres unmarked) [CBK306557] was tested, and the “% of control remaining” value was 72.8598. For `COc1cccc(Cc2cccc(C3CCN(C(=O)Cc4ccccc4)CC3)n2)c1` [CBK286147], the “% of control remaining” value was 70.5618. With `Cn1c(O)c(CCNc2cc(C3CCOC3)ncn2)cnc1=O` (centres unmarked) [CBK307648] the “% of control remaining” value was 64.4911. With `O=C1CN(C(=O)c2cc(-c3ccncc3)nc3ccccc23)CCN1` [CBK304370] the “% of control remaining” value was 51.8854. `Cc1cc(/C=C(/C#N)c2ccc([N+](=O)[O-])cc2)c(C)n1-c1ccc(S(N)(=O)=O)cc1` [CBK266737] was tested, and the “% of control remaining” value was 104.925. With `CN(Cc1ccc(-c2ccc(CO)cc2)nc1)C1CCN(C(=O)OC(C)(C)C)CC1` [CBK173453] the “% of control remaining” value was 59.1836. In the case of `CC(C)(C)C(=O)N1CCc2c([nH]c3ccccc23)C12CCNC2` (centres unmarked) [CBK059462], the “% of control remaining” value is reported as 100.48. For `CC1(C)Cc2c(sc(NC(=O)c3ccccc3Cl)c2C(=O)O)CO1` [CBK126806], the “% of control remaining” value was 86.9819. In the case of `O=C(Cn1c(-c2ccco2)cc2cccnc21)N1CCCC1` [CBK282683], the “% of control remaining” value is reported as 104.765. `Cc1nc(CN2CCN(c3ccc4nnc(C(F)(F)F)n4n3)CC2)cs1` [CBK239750] was tested, and the “% of control remaining” value was 47.0437. `OCCOc1ncnc2ccccc12` [CBK001412] was tested, and the “% of control remaining” value was 98.6308. In the case of `COc1cccc2ncn(CCCc3c(C)n[nH]c3C)c(=O)c12` [CBK307153], the “% of control remaining” value is reported as 90.9518. `CC(C)c1ccc(NS(=O)(=O)c2ccc(F)c(C(=O)O)c2)cc1` [CBK297940] was tested, and the “% of control remaining” value was 91.2692. `Cc1nc(S(=O)(=O)N2CCOC3(CCCC3)C2)cn1C` [CBK304834] was tested, and the “% of control remaining” value was 47.4235. With `Fc1ccc(CCN2CCC(c3nc(-c4cccnc4)no3)CC2)cc1` [CBK051464] the “% of control remaining” value was 67.679. With `O=C(O)c1ccc(S(=O)(=O)NCc2ccccc2)cc1` [CBK262093] the “% of control remaining” value was 104.627. `Cc1cccc(OCC(=O)NC(=S)Nc2cccc(C(=O)O)c2C)c1` [CBK265067] was tested, and the “% of control remaining” value was 80.9091. In the case of `CN(C)c1ccc(C2C(C(=O)c3ccccc3)=C(O)C(=O)N2CCCC(=O)O)cc1` (centres unmarked) [CBK263393], the “% of control remaining” value is reported as 107.056. With `CC(c1ccc(Cl)cc1Cl)N(C)C(=O)c1ccc(S(C)(=O)=O)cc1` (centres unmarked) [CBK242418] the “% of control remaining” value was 85.3045. With `C=C(C)CN1CCN(C(=O)c2ccnc3ccc(Cl)cc23)CC1` [CBK282617] the “% of control remaining” value was 107.848. For `NC(=O)c1ccccc1NC(=O)CCN1C(=O)c2cccc([N+](=O)[O-])c2C1=O` [CBK263118], the “% of control remaining” value was 83.2894. `Nc1ccccc1SC(CC(=O)c1ccccc1)c1ccc2c(c1)OCO2` (centres unmarked) [CBK074823] was tested, and the “% of control remaining” value was 76.2169. With `CCn1c(C(C)Oc2ccc(Cl)cc2)n[nH]c1=S` (centres unmarked) [CBK015099] the “% of control remaining” value was 67.9426. `CC1(C)NC(=O)N(CC(O)CNC23CC4CC(CC(C4)C2)C3)C1=O` (centres unmarked) [CBK264823] was tested, and the “% of control remaining” value was 106.971. In the case of `Cc1c(-c2ccc(Cl)cc2Cl)nc2ccccc2c1C(=O)NCCCc1ccccc1` [CBK262635], the “% of control remaining” value is reported as 89.678. `COC(=O)c1cc(C#N)c(=O)n(CC(O)COc2c(C)cccc2C)c1` (centres unmarked) [CBK305709] was tested, and the “% of control remaining” value was 77.764. For `CCOC(=O)c1[nH]c2ccccc2c1NC(=O)CS(=O)(=O)c1ccc(C)cc1` [CBK160162], the “% of control remaining” value was 109.939. For `COc1ncc(-c2cnc3[nH]c(=O)n([C@H](C)c4ccccc4)c3n2)cn1` [CBK064401], the “% of control remaining” value was 69.4294. With `CN1CCC(N2CCN(C(=O)c3ccc4nc[nH]c4c3)CC2)CC1` [CBK149099] the “% of control remaining” value was 96.322. `CCOC(=O)Cc1csc(SC(C)C(=O)N2CCCc3ccccc32)n1` (centres unmarked) [CBK304228] was tested, and the “% of control remaining” value was 53.7714. In the case of `Oc1ccc2[nH]cc(CCNC(c3ccccc3)(c3ccccc3)c3ccccc3)c2c1` [CBK260891], the “% of control remaining” value is reported as 72.0783. For `COc1ccc(Nc2ncc(C(=O)NCCCN3CCCC3)c3ccccc23)cc1` [CBK291114], the “% of control remaining” value was 81.3278. For `COc1ccc(C(=O)/C=C/Nc2ccc(S(=O)(=O)NC(=N)N)cc2)cc1` [CBK262277], the “% of control remaining” value was 50.7073. `Cc1onc(-c2ccccc2)c1C(=O)Nc1ccc(N2CCNCC2)c2ccccc12` [CBK038942T] was tested, and the “% of control remaining” value was 88.5918. `Cn1cc(CCCC(=O)NC2CCCOC2)c2ccccc21` (centres unmarked) [CBK282486] was tested, and the “% of control remaining” value was 131.864. For `CCN(CC)C(=O)NC(c1ccccc1OC)c1nccn1C` (centres unmarked) [CBK283803], the “% of control remaining” value was 82.886. In the case of `Cc1nn(Cc2ccccc2)c(C)c1CC(=O)NCCn1ccnc1` [CBK282095], the “% of control remaining” value is reported as 103.543. In the case of `CN(C)CCN(C)c1cc(-c2cccc(-c3ccccc3)c2)ncn1` [CBK037763], the “% of control remaining” value is reported as 44.6997. For `CCn1cc(CN2CCCC(c3cc4cccnc4[nH]3)C2)c(C)n1` (centres unmarked) [CBK284701], the “% of control remaining” value was 82.0561. `CSCCCNC(=O)N1CCCCC1CO` (centres unmarked) [CBK156163] was tested, and the “% of control remaining” value was 96.6087. For `COc1ccc(Nc2nc(-c3ccccc3)c(C)s2)c(OC)c1` [CBK131709], the “% of control remaining” value was 109.185. For `COc1ccc(N(CCN2CCCCC2)S(=O)(=O)c2ccc(C)cc2)cc1` [CBK261131], the “% of control remaining” value was 105.124. In the case of `Cn1c(=O)n(C)c2cc(NC3=NS(=O)(=O)c4ccccc43)ccc21` [CBK270210], the “% of control remaining” value is reported as 75.7471. For `Cc1nc(SCCn2cccn2)c2c(=O)n(C)c(=O)n(CC(C)C)c2n1` [CBK306321], the “% of control remaining” value was 94.0677. In the case of `CCc1cc2c(=O)c(-c3cnn(-c4ccccc4)c3)c(C(F)(F)F)oc2c(CN(C)C)c1O` [CBK264530], the “% of control remaining” value is reported as 113.898. In the case of `O=C(O)CCC(=O)NNC(=O)c1ccccc1[N+](=O)[O-]` [CBK261079], the “% of control remaining” value is reported as 93.9542. In the case of `O=C(c1cc(S(=O)(=O)N2CCOCC2)ccc1Cl)N1CCCCC1CO` (centres unmarked) [CBK304579], the “% of control remaining” value is reported as 41.6527. In the case of `CCN(CC)CCCNC(=O)N1CCCC(CO)C1` (centres unmarked) [CBK156061], the “% of control remaining” value is reported as 83.3022. In the case of `Cc1cc(C(=O)NC(Cc2c[nH]c3ccccc23)C(=O)O)c(C)o1` (centres unmarked) [CBK286560], the “% of control remaining” value is reported as 103.488. With `O=C(O)c1cccc(NCN2C(=O)c3ccc([N+](=O)[O-])cc3C2=O)c1` [CBK261100] the “% of control remaining” value was 85.7747. With `O=C(C(OCC(F)(F)F)c1ccccc1)N1CCN(c2nccs2)CC1` (centres unmarked) [CBK298299] the “% of control remaining” value was 58.711. With `CCc1ccc(/C=C2/SC(=S)N(CCC(=O)O)C2=O)cc1` [CBK263390] the “% of control remaining” value was 102.074. For `CN(C)Cc1cnn(-c2ccc(Oc3ccccc3)cc2)n1` [CBK112865], the “% of control remaining” value was 93.182. For `O=S1(=O)Cc2ccccc2C(Oc2cncc(N3CCNCC3)n2)C1` (centres unmarked) [CBK172344T], the “% of control remaining” value was 98.436. With `COC(=O)c1sccc1OCc1nnc(-c2ccc(Cl)c(Cl)c2)o1` [CBK067742] the “% of control remaining” value was 82.1558.
